Laboratory results published in the GPR68 mutational scans of Howard et al. (2025).
Scores with a large standard error are left out. The source holds two more conditions with little spread; they are left out. In variant names, del marks residues removed and ins residues inserted between the two positions. For some of these results: The data file names ogerin without a concentration.

B1: GPR68, Q15743 (parent)
chain: MGNITADNSSMSCTIDHTIHQTLAPVVYVTVLVVGFPANCLSLYFGYLQIKARNELGVYLCNLTVADLFYICSLPFWLQYVLQHDNWSHGDLSCQVCGILLYENIYISVGFLCCISVDRYLAVAHPFRFHQFRTLKAAVGVSVVIWAKELLTSIYFLMHEEVIEDENQHRVCFEHYPIQAWQRAINYYRFLVGFLFPICLLLASYQGILRAVRRSHGTQKSRKDQIQRLVLSTVVIFLACFLPYHVLLLVRSVWEASCDFAKGVFNAYHFSLLLTSFNCVADPVLYCFVSETTHRDLARLRGACLAFLTCSRTGRAREAYPLGAPEASGKSGAQGEEPELLTKLHPAFQTPNSPGSGGFPTGRLA

Columns and labels:
[1] = variants of: B1; assay: cAMP reporter score (Enrich2 score, wild type = 0); higher = more signal; HEK293T, FACS bins
[2] = variants of: B1; assay: surface expression score (Enrich2 score, wild type = 0); higher = more signal; HEK293T, FACS bins

| Variant | cAMP reporter score ([1]; pH 5.5) | cAMP reporter score ([1]; pH 6, modulator: ogerin) | cAMP reporter score ([1]; pH 6.5, modulator: ogerin) | surface expression score [2] | cAMP reporter score ([1]; pH 6) |
| --- | --- | --- | --- | --- | --- |
| F237N | 1.06 | 0.472 | -0.854 | -0.807 |  |
| F237V | -0.31 | -0.539 | -0.778 | 0.1 | 0.147 |
| F237C | 0.578 |  | -1.17 | 0.892 |  |
| F237T | 0.384 | -0.084 | -1.44 | 0.449 | -0.3 |
| F237M | -0.088 | -0.688 | -1.56 | 0.353 | -1.41 |
| F237D | -0.485 | -0.692 |  |  | -0.58 |
| F237Y | -0.21 | 1.27 | 1.63 |  | 0.192 |
| F237W | 0.193 | 0.187 | 0.983 | -2.62 |  |
| F237P | -0.379 | 1.14 | 0.894 | -0.987 |  |
| F237S | -1.08 | -0.996 | -0.549 | 0.525 |  |
| F237L | 0.375 | 0.365 | 0.95 | -0.674 | 1.12 |
| F237G | -0.175 |  | -1.09 | 1.25 |  |
| F237A | 0.452 | -0.869 | -0.89 | 1.69 | -0.959 |
| V230E | -1.04 | -1.51 | -1.4 | -0.718 | -0.64 |
| V230P | -0.957 | -1.56 | -1.98 | -3.41 | -1.47 |
| V230F | -0.875 |  | -0.184 | -2.63 | -0.111 |
| V230N | -0.891 | -1.18 | -0.949 | -3.04 | -1.64 |
| V230T | -0.727 | -2.77 | -1.19 |  |  |
| V230W | -1.75 |  | 0.158 |  | -0.692 |
| V230M | -1 | -1.24 | -1.07 | -1.29 | -0.933 |
| V230S | -1.2 | -1.36 | -0.776 | -0.602 | -1.5 |
| V230A | -0.649 | -1.26 | -1.27 | 0.688 | -0.069 |
| V230L | 1.09 | 0.93 | 2.2 |  | 3.2 |

| Variant | cAMP reporter score ([1]; pH 5.5) | cAMP reporter score ([1]; pH 6, modulator: ogerin) | cAMP reporter score ([1]; pH 6.5, modulator: ogerin) | surface expression score [2] | cAMP reporter score ([1]; pH 6) |
| --- | --- | --- | --- | --- | --- |
| V230G | 0.583 |  | -0.433 |  | 0.804 |
| V230K | -1.68 | -1.87 | -0.843 | -2.18 | -1.04 |
| L242del | -0.566 | -0.118 | -0.152 | -1.67 | -0.398 |
| L229_V230del | -1.2 |  | 0.12 | -0.83 |  |
| V234_V235del | -1.67 | -2.27 | -1.51 | -2.46 | -1.3 |
| A239_C240insG | -1.31 | -1.03 | -1.7 | -2.55 | -1.25 |
| T233_V234insGS | -1.64 | -1.62 | -1.74 | -2.27 | -0.666 |
| V230_L231insGS | -1.71 |  | -0.164 |  | -2.3 |
| L242_P243insGS | -0.548 | -1.1 | -0.526 | -2.12 | -1.27 |
| L238_A239insGSG | -0.722 | -0.785 | -0.664 | -2.45 | -0.89 |
| T233_V234insG | -2.29 | -3.23 | -1.1 | -2.73 | -1.42 |
| R228_L229insG | -2.35 |  | -0.512 | -0.391 | -2.08 |
| C240_L242del | -1.43 | -1.41 | -0.568 | -3.35 | -0.744 |
| I236del | -3.54 |  | -0.748 | -1.22 |  |
| L229_L231del | -1.99 | -2.68 | -1.4 | -1.63 | 0.023 |
| R228del | -0.582 | -0.605 | -0.327 | 0.21 | -0.903 |
| L229_V230insGSG | -2.24 | -1.68 | -1.27 | -1.35 | -1.63 |
| F237_L238del | -1.75 | -0.858 | -1.65 | -2.32 | -0.944 |
| L238del | -1.03 | -2.24 | -1.08 | -0.286 | -0.761 |
| F237_L238insGS | -0.716 | -1.59 | -1.05 | -2.32 |  |
| F241_L242del | -1.07 | -1.47 | -0.793 | -2.32 | -0.364 |
| L231del | -1.28 | -1.3 | -0.894 | -2.31 | -1.4 |
| R228_V230del | -2.73 | -2.26 |  |  |  |

| Variant | cAMP reporter score ([1]; pH 5.5) | cAMP reporter score ([1]; pH 6, modulator: ogerin) | cAMP reporter score ([1]; pH 6.5, modulator: ogerin) | surface expression score [2] | cAMP reporter score ([1]; pH 6) |
| --- | --- | --- | --- | --- | --- |
| L231_T233del | -1.15 | -1.21 | -1.61 | -2.48 | -1.41 |
| P243del | -1.63 | -1.46 | -0.723 | -2.17 | -1.05 |
| F237_L238insGSG | -1.68 | -1.68 | -1.66 | -2.41 | -1.86 |
| V235_I236insG | -0.429 | -3.05 |  |  | -1.71 |
| P243_Y244insGS | -1.47 | -0.768 | -1.44 | -2.18 | -0.679 |
| L238_A239del | -0.904 | -0.704 | -0.954 | -2.67 | -1.21 |
| C240E | -0.478 |  | -0.432 |  |  |
| C240L | -0.164 | -0.636 | 0.546 | -0.824 |  |
| C240P | -1.33 | -2.11 | -1.28 | -1.99 | -1.44 |
| C240W | 0.394 | -0.493 | -0.453 | -2.46 | -0.251 |
| C240A | 0.241 | -0.075 | 0.662 | -0.4 | -1.28 |
| C240M | 0.278 | 0.18 | -0.66 | -1.02 | 0.371 |
| C240G | 1.19 | 1.15 | -0.226 | -1.37 | -0.653 |
| C240I | 0.232 | 0.571 | 1.64 | -2.14 |  |
| C240Y | -0.98 | -2.09 | -1 | -1.03 | -0.258 |
| C240F | 0.558 | -0.213 | -0.696 | 1.18 | -0.191 |
| C240R | -1.72 |  | -0.437 |  | -1.9 |
| C240H | 0.365 | -0.934 | -1.09 |  | -0.609 |
| C240T | -0.164 | -0.643 | -1.31 | -3.35 | -0.825 |
| C240K | -1.71 | -0.255 | -0.768 | -1.82 | -1.28 |
| T233_V234insGSG | -1.4 | -1.14 | -1.39 | -2.07 | -0.456 |
